Inconclusive results, whose numbers are uncertain, are shown with a selection of clear calls. Activity calls are given as the source filed them. The call rests on the fitted dose curve; in most records, active means well fitted curve in either direction with a large enough effect (not every such curve was filed as active); inconclusive means small, poorly fitted or top-dose-only effect, or another doubt; inactive means flat fitted curve, though single readings scatter.
Test: NFAT Signaling Pathway (AID 444);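 further: carbachol stimulus at about its EC50 of 1 µM final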
Settings: Jurkat NFAT-bla M1, carbachol, beta-lactamase ratio, 5 h; at 17.2 µM (top of the series) unless noted
In short: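 Read-out: CCF4 FRET ratio (460 nm/530 nm) after 1 h RT dye loading, used for %activity and AC50 from titration series. Cells: Jurkat NFAT-β-lactamase/M1 line, treated with compound plus 1 uM carbachol for 5 h, 37 °C.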
On the % scale 0 is the no-effect control and ±100 the full control effect.

| SMILES | activity change, negative = inhibition |
| --- | --- |
| CCn1c(SCC(=O)N2CCOCC2)nc2sc3c(c2c1=O)CCCC3 | inconclusive: -40.6% [inhibitor] |
| Cc1nc2cnc(Nc3ccccc3)nc2n(Cc2ccc(F)cc2)c1=O | inactive: -23.6% [at 7.69 µM] |
| OC(Cc1ccccc1)(Cc1ccccc1)c1ccccc1 | inactive: -15.2% [at 7.69 µM] |
| COc1cccc(C2=CC(c3ccccc3)n3ncnc3N2)c1 (stereo not drawn) | inactive: -15.1% |
| COC(=O)c1ccc(Oc2nc3ccccc3n3c(C)nnc23)cc1 | inconclusive: 5.94% [inhibitor] |
| N#Cc1ccc(CN2CC[C@@]3(CCCN(C(=O)c4cnccn4)C3)C2)cc1 | inactive: 1.72% [at 7.69 µM] |
| CCN(CC)c1nc(-c2cccc(OC)c2O)nc2ccccc12 | inconclusive: -115% [inhibitor] |
| CCCCOC(=O)C(C)c1c(C)[nH]c(=S)[nH]c1=O (stereo not drawn) | inconclusive: 2.62% [inhibitor] |
| Nc1ccc2oc3ncccc3c(=O)c2c1 | inactive: 10.7% |
| C/C(NC(=O)c1cccs1)=C1\C(=O)C[C@@H]2[C@H]1C2(C)C | inactive: -25.4% |
| CCOC(=O)c1[nH]c2ccccc2c1N=C(C)N(CC)CC | inconclusive: -45.5% [inhibitor] |
| CCCCn1c2nc3ccccc3nc2c2c(=O)n(CC(C)C)cnc21 | inactive: -20.4% |
| O=C1c2ccccc2-c2onc3ccc(NCc4ccco4)c1c23 | inconclusive: -65.8% [inhibitor] |
| COc1ccccc1CN1CCC2(CC1)CCN(C(=O)c1ccncc1)CC2 | inconclusive: -64.8% [inhibitor] [at 7.69 µM] |
| COC(=O)CSc1nc(-c2cccs2)ccc1C#N | inconclusive: -38.4% [inhibitor] |
| O=C(c1cc(C(F)(F)F)cc(C(F)(F)F)c1)N1CCC[C@@]2(CCN(c3ncccn3)C2)C1 | inconclusive: 31.1% [activator] [at 7.69 µM] |
| Cc1cccc2c1NC(C)CC2C (stereo not drawn) | inactive: 11.8% |
| CC(C)CN1CCC2(CC1)CCN(C(=O)c1cccc(F)c1)CC2 | inconclusive: -65.8% [inhibitor] [at 7.69 µM] |
| CN(C)/C=C1\N=C(c2ccc(Cl)cc2Cl)OC1=O | inactive: -5.67% |
| O=C(c1ccncc1)N1CCC[C@@]2(CCN(Cc3ccccc3)C2)C1 | inactive: -11.7% [at 7.69 µM] |
| CC(C)c1[nH]c(=O)c(C#N)c2c1CSC(C)(C)C2 | inactive: -5.85% |
| C=CCSc1nnc2n(-c3ccccc3OC)c(=O)c3c4c(sc3n12)CCC4 | inconclusive: -31.7% [inhibitor] |
| c1ccc(CNc2ncnc3nc[nH]c23)cc1 | inactive: 7.66% |
| FC(F)(F)c1ccccc1-c1nc(NCCN2CCOCC2)c2ccccc2n1 | inactive: 6.4% [at 7.69 µM] |
| Clc1ccc(/C=C\c2nc(Cl)c(-c3ccc(Cl)cc3)c(Cl)n2)cc1 | inconclusive: -61% [inhibitor] [at 7.69 µM] |
| COCCCn1cnc2c(c1=O)c1nc3ccccc3nc1n2CCc1ccccc1 | inconclusive: 31.5% [activator] |

| SMILES | activity change, negative = inhibition |
| --- | --- |
| CCN(CC)CCN1C(=O)C(=O)/C(=C(/O)c2c(C)[nH]c(C(=O)OC)c2C)C1c1ccc(OC)cc1 (stereo not drawn) | inactive: 8.2% |
| CN1CCc2c(C#N)c(N3CCCCC3)nc(N3CCOCC3)c2C1 | inactive: 20.7% |
| CCCCCSc1nc(N2CCOCC2)c2c(c1C#N)CC(C)(C)OC2 | inconclusive: -42.9% [inhibitor] |
| N#Cc1c(NCCCO)nc(-c2ccccc2)c2c1CCCC2 | inconclusive: -42.6% [inhibitor] |
| c1cncc(-c2cc(-n3ccnc3)ncn2)c1 | inactive: 4.07% [at 7.69 µM] |
| C[N+](C)(C)CCCSc1nc2ccccc2[nH]1 | inactive: -15.2% [at 7.69 µM] |
| CC1CN(C2CCN(C(=O)c3ccccc3Cl)CC2)CC(C)O1 (stereo not drawn) | inconclusive: -35.9% [inhibitor] |
| CN(C)CCCN1C(=O)C(=O)/C(=C(/O)c2ccccc2)C1c1ccccn1 (stereo not drawn) | inconclusive: -63.9% [inhibitor] |
| Cc1ncc(CN=Cc2ccc(Cl)cc2)c(N)n1 | inactive: 23.1% [at 7.69 µM] |
| Nc1c2c(nc3ccccc13)N(C1CCCCC1)CC2 | inconclusive: -76% [inhibitor] |
| c1ccc2c(N3CCCCC3)nc(N3CCCCC3)nc2c1 | inconclusive: -79.8% [inhibitor] |
| CC(C)CC(=O)Nc1ncnc2c1C(=O)CC(C)(C)C2 | inactive: -2.65% |
| COCCN(C(=O)Nc1ccccc1)c1ccccc1C | inactive: -0.712% |
| COC(=O)N1CCC2(CCN(Cc3ccccc3)CC2)CC1 | inconclusive: -63.8% [inhibitor] [at 7.69 µM] |
| Clc1ccc(CSCc2ccc(Cl)cc2Cl)c(Cl)c1 | inconclusive: -49.7% [inhibitor] [at 7.69 µM] |
| Cc1nnc(C)n1/N=C/c1cc(Br)cc(Br)c1O | inconclusive: -101% [inhibitor] |
| O=C=Nc1ccc(Cc2ccc(N=C=O)cc2)cc1 (tested in a mixture with another compound) | inconclusive: -30.4% [inhibitor] [at 7.69 µM] |
| COCC(=O)N1CCC[C@@]2(CCN(c3ccncc3)C2)C1 | inconclusive: 211% [activator] [at 7.69 µM] |
| CC(C)c1cc(NCCN2CCOCC2)n2c(nc3ccccc32)c1C#N | inactive: 6.15% |
| COc1ccc(C(=O)Cn2c(N3CCCCC3)nc3c2c(=O)n(C)c(=O)n3C)cc1OC | inactive: 21% |
| COc1cc(C(=O)Nc2ccccn2)cc(OC)c1OC | inactive: 12% |
| CN1CCC2(CC1)CCN(S(=O)(=O)c1ccccc1)CC2 | inconclusive: -55.4% [inhibitor] [at 7.69 µM] |
| CC1(C)Cc2c(sc3c2C2=NCCN2C=N3)CO1 | inconclusive: -38.2% [inhibitor] |
| COc1ccc(C(=O)N2CCC3(CCCN(CC(C)C)C3)CC2)cc1 | inconclusive: -34.9% [inhibitor] [at 7.69 µM] |
| C[n+]1cccc(/C=C\c2ccc3cccc(O)c3n2)c1 | inactive: 10.1% [at 7.69 µM] |
| C[C@H](CCC(=O)O)[C@H]1CC[C@@H]2[C@H]3CC[C@H]4C[C@@H](O)CC[C@@]4(C)[C@H]3CC[C@]21C | inconclusive: -55% [inhibitor] |

| SMILES | activity change, negative = inhibition |
| --- | --- |
| Cn1c(N2CCOCC2)nc2c1c(=O)n(Cc1ccc(Cl)cc1)c(=O)n2C | inconclusive: 32.1% [activator] |
| CCCOc1ccc(Cc2nn[nH]n2)cc1 | inconclusive: 155% [activator] |
| CC(C)CN1CCCC2(CCN(S(=O)(=O)c3ccccc3)CC2)C1 | inconclusive: -70.2% [inhibitor] [at 7.69 µM] |
| Cc1cc(C)n2c3c(c(C#N)c2n1)CC(C)(C)OC3 | inactive: -2.38% |
| CCCOc1cccc(CN2CCCCC2c2cccnc2)c1 (stereo not drawn) | inconclusive: -40.7% [inhibitor] |
| O=C1C=C(O)CC(c2ccc(Cl)c(Cl)c2)C1 (stereo not drawn) | inactive: -10.9% |
| c1ccc(C2Nc3ccccc3-c3nc4ccccc4n32)nc1 (stereo not drawn) | inconclusive: 23.2% [inhibitor] |
| O=C(O)CSc1ncccc1[N+](=O)[O-] | inactive: 2.05% [at 7.69 µM] |
| FC(F)(F)c1ccccc1-c1cc(N2CCNCC2)ncn1 | inactive: 5.38% [at 7.69 µM] |
| O=C(c1cnccn1)N1CCC2(CC1)CN(C(c1ccccc1)c1ccccc1)C2 | inconclusive: 30.4% [activator] [at 7.69 µM] |
| COc1ccc(CNc2cc(-c3ccccc3CN(C)C)ncn2)c(OC)c1 | inconclusive: -36.4% [inhibitor] [at 7.69 µM] |
| CC(C)CN1CCC2(CC1)CCN(C(=O)c1cnccn1)CC2 | inconclusive: -33.3% [inhibitor] [at 7.69 µM] |
| CC1CN(C2CCN(C(=O)c3ccccc3)CC2)CC(C)O1 (stereo not drawn) | inconclusive: -57.5% [inhibitor] |
| CN1C2C=C3C(C#N)=C(N)C(C#N)(C#N)[C@@H](c4cccs4)C3C1CC2 (stereo partly drawn) | inconclusive: -74.7% [inhibitor] |
| CCOC(=O)c1ccc(N=CC2=C(O)CC(c3ccco3)CC2=O)cc1 (stereo not drawn) | inconclusive: 31.2% [activator] |
| Cn1c(=O)c2c3c(sc2n2c(SCC(=O)c4ccc(Cl)cc4)nnc12)COC(C)(C)C3 | inconclusive: -68.5% [inhibitor] |
| S=c1nc(-c2ccccc2)[nH]n1-c1ccccc1 | inactive: 5.29% |
| N#Cc1c(SCC(N)=O)nsc1SCc1ccc(Cl)cc1 | inconclusive: -34.9% [inhibitor] |
| Cc1cc(Cc2c(C)c(C)c(Cc3cc(C)cc(C(C)(C)C)c3O)c(C)c2C)c(O)c(C(C)(C)C)c1 | inactive: 14.4% [at 7.69 µM] |
| CC(C)Cc1nc(N2CCOCC2)c(C#N)c2c1CCC2 | inconclusive: -16.1% [inhibitor] |
| COc1cccc(-c2nc(N3CCC(C)CC3)c3ccccc3n2)c1O | inconclusive: -65.9% [inhibitor] |
| O=C(c1ccco1)N1CCC[C@@]2(CCN(Cc3ccccc3)C2)C1 | inactive: -3.82% [at 7.69 µM] |
| COc1ccc(C(=O)N2CCC[C@@]3(CCN(C(=O)Nc4cccc(F)c4)C3)C2)cc1 | inactive: 2.1% [at 7.69 µM] |
| CCc1cccc(CC)c1N(COC)C(=O)Cn1nnc2ccccc21 | inactive: 10% |
| c1ccc2c(NCC3CCCO3)nc(-c3ccncc3)nc2c1 (stereo not drawn) | inconclusive: 33.2% [activator] |
| O=C(c1ccco1)N1CCC2(CC1)CN(c1ccccn1)C2 | inconclusive: -45.8% [inhibitor] [at 7.69 µM] |

Reference: PubChem BioAssay (NCATS)
